Results: publication PMC4336329 (PLoS ONE, 2015)
Hit rate of the full screen: of about 310,000 compounds, about 2,200 (0.71%) showed an effect of 50% or more. The effect is printed as a negative number. The list shows a part of the results.

Each compound was assayed against human ether-à-go-go-related gene (hERG) potassium channel (human, UniProt Q12809) (assay: primary screen, population patch clamp on CHO cells stably expressing hERG).
Chain of human ether-à-go-go-related gene (hERG) potassium channel (Q12809 whole entry, looked up): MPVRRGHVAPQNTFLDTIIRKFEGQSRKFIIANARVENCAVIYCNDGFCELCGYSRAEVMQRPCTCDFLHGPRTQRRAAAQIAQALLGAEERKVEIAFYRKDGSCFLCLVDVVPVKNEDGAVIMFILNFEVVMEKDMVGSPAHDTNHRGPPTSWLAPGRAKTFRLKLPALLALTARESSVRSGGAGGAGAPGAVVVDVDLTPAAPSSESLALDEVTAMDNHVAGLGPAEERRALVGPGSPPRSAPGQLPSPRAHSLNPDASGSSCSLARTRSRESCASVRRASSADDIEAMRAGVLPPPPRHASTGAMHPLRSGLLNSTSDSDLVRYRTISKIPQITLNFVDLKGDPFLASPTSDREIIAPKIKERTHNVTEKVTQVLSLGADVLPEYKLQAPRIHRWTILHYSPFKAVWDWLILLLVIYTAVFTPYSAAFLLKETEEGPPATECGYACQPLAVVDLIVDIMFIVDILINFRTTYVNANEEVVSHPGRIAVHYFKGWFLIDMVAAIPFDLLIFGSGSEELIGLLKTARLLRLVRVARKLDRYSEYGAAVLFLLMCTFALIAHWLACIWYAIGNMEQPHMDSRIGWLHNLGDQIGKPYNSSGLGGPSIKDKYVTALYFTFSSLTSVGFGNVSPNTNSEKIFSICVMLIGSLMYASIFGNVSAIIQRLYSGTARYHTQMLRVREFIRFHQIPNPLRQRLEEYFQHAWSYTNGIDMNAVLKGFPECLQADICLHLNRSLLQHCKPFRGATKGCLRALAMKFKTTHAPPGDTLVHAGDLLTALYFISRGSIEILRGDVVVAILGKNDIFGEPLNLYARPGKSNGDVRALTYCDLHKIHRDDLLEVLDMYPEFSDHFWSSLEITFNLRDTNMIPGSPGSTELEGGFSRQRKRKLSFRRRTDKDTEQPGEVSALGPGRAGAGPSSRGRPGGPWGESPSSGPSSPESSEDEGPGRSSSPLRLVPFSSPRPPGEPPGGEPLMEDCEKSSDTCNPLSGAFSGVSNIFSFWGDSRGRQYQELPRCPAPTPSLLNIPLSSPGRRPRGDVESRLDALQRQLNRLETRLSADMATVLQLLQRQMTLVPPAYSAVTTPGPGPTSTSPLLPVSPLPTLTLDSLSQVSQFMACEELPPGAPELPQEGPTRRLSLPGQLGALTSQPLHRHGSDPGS

| Compound | hERG current change (%, negative = inhibition) at 1uM |
| --- | --- |
| CC1(C)Oc2ccc3ccc(=O)oc3c2/C(=C/NNC(N)=O)C1=O | 4.1% |
| Cc1cc(C)n2nc(SCCC(=O)NCc3ccccc3)nc2n1 | 8.12% |
| COc1cccc2cc(-c3nc(-c4cccs4)cs3)c(=O)oc12 | 11.1% |
| COCCNC(=O)CN1C(=O)CSc2ccc(S(=O)(=O)N3CCOCC3)cc21 | 19.1% |
| COc1ccc(C(=O)c2ccc(OC)c(OC)c2)cc1 | 0.254% |
| COc1cccc(NC(=S)N/N=C2\CC3CCC2(C)C3(C)C)c1 (centres unmarked) | -0.66% |
| CCCC(=O)c1c[nH]c(C(=O)N2CCOCC2)c1 | 7.66% |
| CNC(=O)COc1ccc(S(=O)(=O)Nc2ccc(C)cc2)cc1 | 9.74% |
| CC(C)NC(=O)Cn1cc(C(=O)C(=O)N2CCOCC2)c2ccccc21 | 9.63% |
| CCCCc1nnc(NC(=O)c2ccccc2OCc2c(C)noc2C)s1 | -1.29% |
| N#Cc1nc(Cc2cccc3ccccc23)oc1NCCN1CCOCC1 | -11.2% |
| Cc1ccc(S(=O)(=O)NCc2cccnc2)cc1C(=O)NC1CCCCC1 | -1.3% |
| CCN(CC)S(=O)(=O)c1ccc(OC)c(NC(=O)c2ccc(N3CCCC3=O)cc2)c1 | 10.3% |
| Cc1cc(C)n(C(=O)c2cccc([N+](=O)[O-])c2C)n1 | 12% |
| Cc1nn(Cc2ccc(Cl)cc2)c(C)c1NC(=O)CSc1nc2c(c(C(F)(F)F)n1)CCc1ccccc1-2 | 0.446% |
| COc1ccc(OC(C)C(=O)N(C)Cc2nc(-c3ccccc3)no2)cc1 (centres unmarked) | 13% |
| O=C(Nc1nc(-c2ccc(F)c(F)c2)cs1)c1ccc(OCC2CCCO2)cc1 (centres unmarked) | 8% |
| Cc1cc(=O)oc2c(C)c(OCC(=O)Nc3cccnc3)ccc12 | 5.29% |
| COc1ccc(C2CC(c3ccccc3)=NN2C(=O)COC(=O)c2cc(S(=O)(=O)N3CCOCC3)ccc2Cl)cc1 (centres unmarked) | 1.95% |
| CCCCn1c2ccc(C)cc2c2nnc(SCCN3CCCCC3)nc21 | -33.6% |
| Cc1ccc(CS(=O)Cc2ccc(C(=O)NCc3ccccc3Br)o2)cc1 (centres unmarked) | 17.4% |
| O=C(CSc1nc2ccccc2s1)N1CCCCC1 | 4.67% |

| Compound | hERG current change (%, negative = inhibition) at 1uM |
| --- | --- |
| Cc1ccccc1C(=O)/C(C#N)=N/Nc1c(C)n(C)n(-c2ccccc2)c1=O | 9.32% |
| CCc1ccc(N(C(=O)c2csnn2)C(C(=O)NC(C)(C)C)c2cccnc2)cc1 (centres unmarked) | 9.51% |
| COc1ccc(CNC(=O)COC(=O)CCCOc2ccc(Cl)cc2Cl)cc1 | 10.7% |
| CC(=O)N1c2ccc(S(=O)(=O)N3CCC(C(=O)Nc4cccc(C)c4)CC3)cc2CC1C (centres unmarked) | 16.4% |
| COc1cccc(C(O)c2nc3ccccc3n2C(C)C)c1 (centres unmarked) | 9.4% |
| O=C(CSc1nnc2ccc(-c3cccnc3)nn12)Nc1ccccc1 | -6.16% |
| Clc1ccc(OCCn2ccnc2)cc1Cl.O=C(O)C(=O)O | 11.1% |
| CC(N=c1ccccn1C(=O)Nc1ccc(F)cc1)c1ccco1 (centres unmarked) | 10% |
| CC(C)C(NS(=O)(=O)c1cc(C(=O)O)ccc1Cl)C(=O)O (centres unmarked) | 14.6% |
| Cc1ccc(OCC(=O)NCCN2CCCC2)cc1.Cl | 1.81% |
| CCOC(=O)/C(C#N)=C/c1c(N2CCN(Cc3ccc4c(c3)OCO4)CC2)nc2c(C)cccn2c1=O | 11.9% |
| O=C(O)c1cccc(-n2c(/C=C/c3ccc([N+](=O)[O-])cc3)nc3ccccc3c2=O)c1 | 4.6% |
| Cc1ccc(O)c(-c2cc(-c3ccccc3[N+](=O)[O-])[nH]n2)c1 | 10.4% |
| CCNC(=O)c1ccc(C23CC4CC(CC(C4)C2)C3)o1 | 8.19% |
| CC1=C(C(=O)OC(C)C)C(c2cn(-c3ccccc3)nc2-c2cccs2)NC(=O)N1 (centres unmarked) | 13.6% |
| O=C(O)/C=C(\Oc1ccccc1)C1(O)CCCCC1 | 11.4% |
| CCOC(=O)C1=C(COC(=O)/C=C/c2ccc(OC)c(OC)c2)NC(=O)NC1C (centres unmarked) | 9.07% |
| CCc1cccc(CC)c1NC(=O)COC(=O)CCc1cc(OC)c(OC)c(OC)c1 | -0.422% |
| CCc1ccc(C(=O)C(C)OC(=O)C2COc3ccccc3O2)cc1 (centres unmarked) | 0.206% |
| Cc1ccc(-n2c(=S)[nH]c3nc4c(cc3c2=O)COC(C)(C)C4)cc1 | 10.1% |
| CCN(Cc1cnn(C)c1)C(=O)CC1C(=O)NCCN1Cc1cccc(OC)c1OC (centres unmarked) | 1.98% |
| CN(CC(=O)Nc1ccccc1Cl)C(=O)COC(=O)c1ccc(S(=O)(=O)C(F)F)cc1 | -32.4% |
